Assay results reported in PubChem BioAssay AID651820 (National Center for Advancing Translational Sciences (NCATS), 2012).
Where “and” joins values, the source holds several entries; their conditions need not be identical. Equal entries are not always repeated. The campaign covered roughly 340,000 compounds. About 12,000 (3.5%) were called active. The inconclusive results got no clear call from the source; some entries with a clear call stand among them for comparison. Calls follow the shape of the dose curve; as a rule, active = well fitted inhibition curve with a large enough effect; inconclusive = small, poorly fitted or top-dose-only effect, or another doubt; inactive = no such curve, though single readings can be large or run the other way. Potencies of inconclusive entries are doubtful fits and often do not repeat.

Experiment: qHTS Assay for Inhibitors of Hepatitis C Virus (HCV)
Conditions: Huh7.5.1 HCVcc-Cre (HCVcc is cell-culture hepatitis C virus) infection, luciferase reporter, 44 h; series mostly up to 41.8 µM
How it was run: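 Cells (1,000/well) were plated 4 h before compound, then infected with HCVcc-Cre virus (~0.5 moi). After 44 h further culture, infection was read as luciferase luminescence following a 15 min substrate incubation at room temperature.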
Potency is read from the fitted curve at half-maximal effect; tags tell the direction and shape of the fitted curve.

| Structure (SMILES) | Potency |
| --- | --- |
| CSCCC(NC(=O)c1ccccc1Br)C(=O)NNC(=O)c1ccncc1 (stereo not drawn) | inactive |
| Cc1cccc(NC(=O)N2CCN(Cc3ccc(Cl)cc3)CC2)c1 | inconclusive: 31.6 µM [inhibitor, single point] |
| CS(=O)(=O)NCc1ccc(C(=O)NCCOc2ccccc2)cc1 | inactive |
| COc1ccc(/C=C2\CCC(C3CCCC3)C2=O)cc1Cn1cccn1 (stereo not drawn) | inconclusive: 31.6 µM [inhibitor, single point] |
| CC(=O)c1cccc(NC(=O)c2ccc3c(Cl)c4c(nc3c2)CCCC4)c1 | inconclusive: 3.55 µM [inhibitor, partial curve] |
| C/C=C/c1ccc(OCCCn2cncn2)c(OC)c1 | inconclusive: 12.6 µM [inhibitor, partial curve] |
| C/C(=N\NC(=O)CNC(=O)c1ccc(Br)cc1)c1ccco1 | inactive |
| CCOC(=O)/C(C#N)=C(/C)c1ccc(OC)cc1 | active: 31.6 µM |
| COc1cc2c(cc1OC)CN(C(=O)CCNC(=O)c1ccc(Br)cc1)CC2 | inconclusive: 31.6 µM [inhibitor, single point] |
| CC(=O)n1cc([C@@H]2C=C(C(=O)N3CCN(Cc4ccc5c(c4)OCO5)CC3)O[C@H](OCCCCO)C2)c2ccccc21 | inconclusive: 11.2 µM [inhibitor, partial curve] |
| C=CCc1cc(OC)ccc1OCC(O)CN1CCN(c2ccc(OC)cc2)CC1 (stereo not drawn) | inconclusive: 31.6 µM [inhibitor, single point] |
| C[C@H](CO)N1C[C@H](C)[C@@H](CN(C)Cc2ccccc2)Oc2c(NC(=O)C3CCCCC3)cccc2C1=O | inconclusive: 22.4 µM [inhibitor, partial curve] |
| CCOC(=O)c1ccc(N=C2SC(C(=O)Nc3ccc(C(=O)O)cc3)CC(=O)N2Cc2cccs2)cc1 (stereo not drawn) | inactive |
| CC(C)N(C(=O)[C@H]1C[C@H](CC(=O)NCCN2CCOCC2)C(=O)N2CCc3c([nH]c4cc(-c5ccco5)ccc34)[C@]12C)C(C)C | inconclusive: 35.5 µM [inhibitor, partial curve] |
| CCN(CC)S(=O)(=O)c1ccc(Br)c(OC)c1 | inconclusive: 31.6 µM [inhibitor, single point] |
| Cc1ccc(CCC(=O)Nc2ccc(S(N)(=O)=O)cc2)o1 | inconclusive: 31.6 µM [inhibitor, single point] |
| CCC(=O)Nc1ccccc1C(=O)OC(c1ccccc1)c1ccccc1 | inconclusive: 11.2 µM [inhibitor, single point] |
| CCOc1cc(NC(=O)c2ccco2)c(OCC)cc1NC(=O)c1cc(OC)c(OC)c(OC)c1 | inconclusive: 2.24 µM [inhibitor, full curve] and inconclusive: 891 nM [inhibitor, full curve] |
| CCCc1nnc(NC(=O)CCC(=O)N2CCN(CCOc3ccc(C)cc3)CC2)s1 | inconclusive: 22.4 µM [inhibitor, single point] |
| Cc1cc2c(c(/C=C/C(=O)c3ccccc3)c1)OC1(C=C2)Oc2ccccc2C(=O)N1C (stereo not drawn) | active: 12.6 µM |
| O=C(Nc1cccc(S(=O)(=O)N2CCCCCC2)c1)c1ccc2c(c1)OCO2 | inconclusive: 22.4 µM [inhibitor, single point] |
| C/C(=N\N1CCN(Cc2ccccc2Cl)CC1)c1ccc([N+](=O)[O-])cc1 | inconclusive: 31.6 µM [inhibitor, single point] |

| Structure (SMILES) | Potency |
| --- | --- |
| COc1ccc2c(c1)CCc1c-2nc2ccccc2c1N1CCOCC1 | active: 4.47 µM |
| Cc1ccc(NC(=O)NC(=O)CN2C(=O)NC3(CCc4ccccc43)C2=O)c(C)c1 (stereo not drawn) | inconclusive: 8.91 µM [inhibitor, partial curve] |
| CCn1c(SCC(=O)NC(=O)NCc2ccco2)nc2sc(C)c(C)c2c1=O | inconclusive: 3.55 µM [inhibitor, full curve] |
| CC1Cc2ccccc2N1C(=O)CSc1nnc(N)s1 (stereo not drawn) | inactive |
| CCc1nc(SCC(=O)Nc2nccs2)c2oc3ccccc3c2n1 | inconclusive: 1.58 µM [inhibitor, full curve, poor fit] |
| COc1cccc(OCCc2c(C)n[nH]c2C)c1 | inconclusive: 31.6 µM [inhibitor, single point] |
| COc1ccc(NC(=O)C2CC(=O)N(Cc3ccco3)C2)cc1Cl (stereo not drawn) | inconclusive: 10 µM [inhibitor, partial curve] |
| Cc1cccc2sc(NC(=O)c3ccc(NS(=O)(=O)c4cccs4)cc3)nc12 | inconclusive: 10 µM [inhibitor, partial curve] |
| COc1ccc2[nH]cc(CCNC(=O)Cc3ccc(F)cc3)c2c1 | inactive |
| COc1ccc(N)cc1-n1c(C)ccc1C | active: 0.708 µM |
| Cc1nnsc1C(=O)Nc1ccc(S(=O)(=O)N2CCC(C)CC2)cc1 | inconclusive: 7.08 µM [inhibitor, partial curve] |
| O=C(COc1ccc([N+](=O)[O-])cc1Cl)NCCc1ccccc1 | inconclusive: 11.2 µM [inhibitor, partial curve, poor fit] |
| CCOC(=O)c1sc2ncn(/N=C/N(C)C)c(=O)c2c1C | inconclusive: 0.562 µM [inhibitor, full curve] |
| Cc1c(OCC(=O)NCc2cccnc2)ccc2c3c(c(=O)oc12)CCC3 | inactive |
| CC(=O)C1=C(O)CC(c2ccccc2)CC1=NCCc1c(C)[nH]c2ccccc12 (stereo not drawn) | inconclusive: 22.4 µM [inhibitor, single point] |
| CCn1c(-c2ccc(-c3ccccc3)cc2)c[nH]c1=S | active: 10 µM |
| CCN1CCN(Cc2ccc(C)cc2C)CC1 | inactive |
| O=S(=O)(/N=C(/Nc1cccc2ccccc12)c1ccccc1)c1ccc(Br)cc1 | inactive |
| CCN(C(=O)CCNC(=O)Cn1cnc2ccccc2c1=O)c1ccccc1F | inactive |
| COc1ccc(-n2nc(C(=O)Nc3ccc4c(c3)OCO4)c3ccccc3c2=O)cc1 | inconclusive: 20 µM [inhibitor, single point] |
| Cc1cc(NC(=O)c2ccc(Cl)c(S(=O)(=O)N3CCCCC3)c2)no1 | inconclusive: 15.8 µM [inhibitor, single point] |
